# Test results as given in paper PMC5892938.
# The list shows a part of the results. At the low end of the ranking the order means little.
# Molecular target: GST-SBP-SLBP (stem-loop binding protein) (UniProt Q14493)
# Assay: targeted RNA Bind-n-Seq;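 also: DESeq read counts versus GST-SBP nonspecific binding control pulldown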
# Conditions: RBNS binding buffer: 25 mM Tris pH 7.5, 150 mM KCl, 3 mM MgCl2, 0.1% Tween, 0.5 mg/mL BSA, 1 mM DTT; 27 nM protein, 750 pM RNA pool; temperature not stated; high values mean tight binding
row,Sequence,binding signal (log2 fold change)
1,GGUCACGUCUCAAUCAACUCAAUUUCAGGAGUUUACUCCUGCUUACUCAACAGCUCGCAGUCAAG,-0.163
2,GGUCACGUCUCAAUCAACUCAACUCCAGGAGUUUCCUCCUGCAUAUUCAACAGCUCGCAGUCAAG,0.166
3,GGUCACGUCUCAAUCAACUCUUCUCCCAGGGAAAGCCCUGGCUUAUUCAACAGCUCGCAGUCAAG,-0.183
4,GGUCACGUCUCAAUCAACUCUUUCUCAGGAGUUUUCUCCUGUAAUUUCAACAGCUCGCAGUCAAG,-0.152
5,GGUCACGUCUCAAUCAACUCAUCCUCAGGAGUUUACUCCUGCAAAUUCAACAGCUCGCAGUCAAG,-0.17
6,GGUCACGUCUCAAUCAACUCUUCGCCCAGGGAAAUCCCUGGUAAUUUCAACAGCUCGCAGUCAAG,0.181
7,GGUCACGUCUCAAUCAACUCAAUUUCAGGAGUUUCCUCCUGCUAACUCAACAGCUCGCAGUCAAG,0.0742
8,GGUCACGUCUCAAUCAACUCUUCCCCCAGGGAAAGCCCUGGUUAUUUCAACAGCUCGCAGUCAAG,-0.0402
9,GGUCACGUCUCAAUCAACUCUAUGUCAGGAGUUUACUCCUGCUUUUUCAACAGCUCGCAGUCAAG,0.151
10,GGUCACGUCUCAAUCAACUCAUUUUCAGGAGUUUCCUCCUGCUUAUUCAACAGCUCGCAGUCAAG,-0.0374
11,GGUCACGUCUCAAUCAACUCCAUAGAGGGGGGGAAAACCCCUUUACCCUCCUAAUCAACAGCUCGCAGUCAAG,0.0187
12,GGUCACGUCUCAAUCAACUCAUCUUCCAGGGAAACCCCUGGCAAACUCAACAGCUCGCAGUCAAG,0.173
13,GGUCACGUCUCAAUCAACUCUUCCCCAGGAGUUUCCUCCUGUUAUUUCAACAGCUCGCAGUCAAG,-0.0522
14,GGUCACGUCUCAAUCAACUCUAUCUCCAGGGAAAUCCCUGGCUAACUCAACAGCUCGCAGUCAAG,-0.0434
15,GGUCACGUCUCAAUCAACUCAUUCCCCAGGGAAAUCCCUGGUUUAUUCAACAGCUCGCAGUCAAG,-0.353
16,GGUCACGUCUCAAUCAACUCCUCAGAGGGGGGGAAAACCCCUUUACCCUCACUUUCAACAGCUCGCAGUCAAG,-0.113
17,GGUCACGUCUCAAUCAACUCUAACGAGGGGGGGAAAACCCCUUUACCCUCUCCAUCAACAGCUCGCAGUCAAG,-0.271
18,GGUCACGUCUCAAUCAACUCAACUUCAGGAGUUUCCUCCUGUAUUUUCAACAGCUCGCAGUCAAG,-0.0274
19,GGUCACGUCUCAAUCAACUCUAUCCCAGGAGUUUUCUCCUGCUAAUUCAACAGCUCGCAGUCAAG,0.181
20,GGUCACGUCUCAAUCAACUCUCAAGAGGGGGGGAAAACCCCUUUGCCCUCCGUAUCAACAGCUCGCAGUCAAG,-0.0682
21,GGUCACGUCUCAAUCAACUCUAUUUCAGGAGUUUCCUCCUGUUUACUCAACAGCUCGCAGUCAAG,-0.062
22,GGUCACGUCUCAAUCAACUCAAUCUCAGGAGUUUCCUCCUGCAUUUUCAACAGCUCGCAGUCAAG,-0.125
23,GGUCACGUCUCAAUCAACUCUCAAGAGGGGGGGAAAACCCCUUUGCCCUCAUCCUCAACAGCUCGCAGUCAAG,-0.0803
24,GGUCACGUCUCAAUCAACUCUAUCCCCAGGGAAACCCCUGGUUUUUUCAACAGCUCGCAGUCAAG,-0.446

row,Sequence,binding signal (log2 fold change)
1,GGUCACGUCUCAAUCAACUCCUAAGAGGGGGGGAAAACCCCUUUACCCUCAAUAUCAACAGCUCGCAGUCAAG,-0.334
2,GGUCACGUCUCAAUCAACUCAUCUUCAGGAGUUUCCUCCUGUAUUCUCAACAGCUCGCAGUCAAG,0.0242
3,GGUCACGUCUCAAUCAACUCAUCUCCCAGGGAAAGCCCUGGUAUAUUCAACAGCUCGCAGUCAAG,-0.254
4,GGUCACGUCUCAAUCAACUCCCAAAGGUUUUUCUUAGAGCCACCCAUCAACAGCUCGCAGUCAAG,0.293
5,GGUCACGUCUCAAUCAACUCUAUUUCCAGGGAAAUCCCUGGUAUAUUCAACAGCUCGCAGUCAAG,0.0946
6,GGUCACGUCUCAAUCAACUCCCAAGAGGGGGGGAAAACCCCUUUACCCUCGUUAUCAACAGCUCGCAGUCAAG,-0.598
7,GGUCACGUCUCAAUCAACUCAAUGUCCAGGGAAAUCCCUGGUUUUUUCAACAGCUCGCAGUCAAG,-0.141
8,GGUCACGUCUCAAUCAACUCUAUUCCCAGGGAAACCCCUGGUUUUCUCAACAGCUCGCAGUCAAG,-0.0262
9,GGUCACGUCUCAAUCAACUCGUUUUCAGGAGUUUCCUCCUGUAUUUUCAACAGCUCGCAGUCAAG,-0.0502
10,GGUCACGUCUCAAUCAACUCUUUAGAGGGGGGGAAAACCCCUUUGCCCUCAAUCUCAACAGCUCGCAGUCAAG,-0.195
11,GGUCACGUCUCAAUCAACUCAAUCUCAGGAGUUUGCUCCUGUAUAUUCAACAGCUCGCAGUCAAG,0.0629
12,GGUCACGUCUCAAUCAACUCUUCUUCAGGAGUUUUCUCCUGCAAUUUCAACAGCUCGCAGUCAAG,0.116
13,GGUCACGUCUCAAUCAACUCAUUCGCCAGGGAAAUCCCUGGGUAUUUCAACAGCUCGCAGUCAAG,0.219
14,GGUCACGUCUCAAUCAACUCUACUCCCAGGGAAAUCCCUGGCUUUUUCAACAGCUCGCAGUCAAG,0.121
15,GGUCACGUCUCAAUCAACUCUACUUCCAGGGAAAUCCCUGGUAUUCUCAACAGCUCGCAGUCAAG,-0.00825
16,GGUCACGUCUCAAUCAACUCAAUUUCAGGAGUUUUCUCCUGCAUAGUCAACAGCUCGCAGUCAAG,0.00244
17,GGUCACGUCUCAAUCAACUCAAUUUCAGGAGUUUCCUCCUGUAUACUCAACAGCUCGCAGUCAAG,-0.0953
18,GGUCACGUCUCAAUCAACUCACUAGAGGGGGGGAAAACCCCUUUGCCCUCCAUAUCAACAGCUCGCAGUCAAG,-0.16
19,GGUCACGUCUCAAUCAACUCAAUCUCAGGAGUUUCCUCCUGUAUUUUCAACAGCUCGCAGUCAAG,-0.0402
20,GGUCACGUCUCAAUCAACUCUUUUCCCAGGGAAAACCCUGGCAUAUUCAACAGCUCGCAGUCAAG,0.281
21,GGUCACGUCUCAAUCAACUCAAUUUCCAGGGAAAUCCCUGGCUAAUUCAACAGCUCGCAGUCAAG,0.122
22,GGUCACGUCUCAAUCAACUCAUUAGAGGGGGGGAAAACCCCUUUGCCCUCAUCCUCAACAGCUCGCAGUCAAG,-0.0248
23,GGUCACGUCUCAAUCAACUCAAUCUCAGGAGUUUACUCCUGUAUGUUCAACAGCUCGCAGUCAAG,0.108
